Data: PubChem BioAssay AID686979 (National Center for Advancing Translational Sciences (NCATS), 2013)
“And” between values parts separate entries of the source, which are not always exact repeats. Identical values can stand only once. The campaign covered roughly 420,000 compounds. About 50,000 (12%) were called active. The shares of active, inactive and inconclusive entries below differ from those in the screen. Calls follow the shape of the dose curve; as a rule, active = well fitted inhibition curve with a large enough effect; inconclusive = small, poorly fitted or top-dose-only effect; inactive = flat fitted curve, though single readings scatter. Where the call is inconclusive, the potency comes from a doubtful curve fit.

Assay: qHTS for Inhibitors of human tyrosyl-DNA phosphodiesterase 1 (TDP1): qHTS in cells in presence of CPT; also: nearly all actives have a fitted effect of over 55% in size
Conditions: chicken DT40 Tdp1-/-;hTDP1 cells + 20 nM CPT, ATP luminescence, 48 h; activity change, negative = growth inhibition: at 46.2 µM (top of the series)
In short: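 Cell growth measured by CellTiter-Glo luminescence after a minimum 48 h, 37 C compound exposure with 20 nM CPT in Tdp1-knockout DT40 cells stably expressing hTDP1, seeded 400/well; qHTS titration format.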
% is scaled to controls: 0 for no effect and ±100 for the full control effect; potency is read from the fitted curve at half-maximal effect; tags tell the direction and shape of the fitted curve.

Structure (SMILES) | activity change, negative = growth inhibition | Potency
C=CCNc1nc(Nc2ccc([N+](=O)[O-])cc2)nc(OC)n1 | inactive: -3.44% | –
COc1cc2c(-c3ccc4cc[nH]c4c3)c(-c3ccc(C#N)cc3)oc(=O)c2cc1OC | – | active: 5.8 µM
CCC1Oc2ccc(C)cc2N(CC(=O)N2CCN(c3ccccc3OC)CC2)C1=O (configuration not stated) | – | inconclusive: 20.6 µM [inhibitor, single point]
O=C(/C=C/c1ccncc1)c1ccc2c(c1)OCCO2 | – | inconclusive: 23.1 µM [inhibitor, single point]
O=C(Nc1nc2ccccc2[nH]1)C1CCC1 | – | inconclusive: 29.1 µM [inhibitor, single point]
COc1cccc(-c2oc3ccc(C)cc3c(=O)c2O)c1 | – | active: 20.6 µM
COc1ccc(N2CCN(C(=O)COC(=O)CSc3ccccc3)CC2)cc1 | inactive: -15.7% | –
CC1(C)CC(NC(=O)c2ccc(Cl)c(S(=O)(=O)N(Cc3ccccc3)c3ccccc3)c2)CC(C)(C)N1 | – | inconclusive: 29.1 µM [inhibitor, single point]
CCOc1ccc(Nc2nc(C)c(NC(=O)c3cccc(F)c3)c(Nc3ccc(OCC)cc3)n2)cc1 | – | active: 0.651 µM
COc1ccc(C2=NOC(C)(c3nnc(Cc4ccccc4)o3)C2)cc1 (configuration not stated) | inactive: -4.23% | –
O=C(COc1ccc2ccccc2c1)Nc1nccs1 | inactive: 4.33% | –
COc1cc(CNC(=O)C2CCCCN2S(=O)(=O)c2ccc(F)cc2)cc(OC)c1OC (configuration not stated) | – | inconclusive: 18.4 µM [inhibitor, single point]
CCN(CC)CCCN(Cc1cc2cc3c(cc2[nH]c1=O)OCO3)C(=S)Nc1ccc(OC)cc1 | inactive: -28% | –
CCN(C(=O)COC(=O)c1cccnc1)c1cccc2ccccc12 | – | inconclusive: 29.1 µM [inhibitor, single point]
CCC(C(=O)OCC(=O)NC(=O)c1ccccc1OC)c1ccccc1 (configuration not stated) | inactive: 4.1% | –
CC(=O)c1cc2c(cc1NC(=O)CN1CCC(Cc3ccccc3)CC1)OCO2 | – | inconclusive: 29.1 µM [inhibitor, single point]
COc1ccc(C(=O)Nc2cccc(C(=O)Nc3cc(C)ccn3)c2)cc1 | – | inconclusive: 29.1 µM [inhibitor, single point]
COc1ccc(-c2cc(C)no2)cc1S(=O)(=O)NCc1cccs1 | – | active: 14.6 µM
CCCCCCC(=O)c1c(C)[nH]c(C(=O)OCC)c1C | – | inconclusive: 29.1 µM [inhibitor, single point]
O=C(CN1CCN(CC(=O)Nc2ccccc2C(F)(F)F)CC1)Nc1ccccc1F | – | inconclusive: 20.6 µM [inhibitor, single point]
NC(=O)c1cccc(-c2ccnc3c2CC(C(=O)NCCc2ccccc2)O3)c1 (configuration not stated) | – | active: 14.6 µM
CCc1cccc(NC(=O)CN2Cc3ccccc3C2=O)c1 | inactive: 3.32% | –
Cc1ccc2nc(SCC(=O)Nc3ccc(F)cc3F)[nH]c2c1 | – | inconclusive: 29.1 µM [inhibitor, single point]
CCOC(=O)c1ccc(CSc2nnc(-c3ccncc3)n2N)cc1 | inactive: -8.05% | –

Structure (SMILES) | activity change, negative = growth inhibition | Potency
CCc1ccc(NC(=O)c2cnn(-c3ccccc3)c2C)cc1 | inactive: -3.53% | –
COc1ccccc1CNC(=O)c1cccn1-c1nnc(N2CCCCC2)s1 | inactive: -29.9% | –
COc1ccc(NC(=O)c2cc(-c3cc(Cl)ccc3OC)n[nH]2)cc1OC | – | active: 20.6 µM
CC(=O)N1CCc2c(sc3c2c(=O)n(-c2ccc(C)cc2)c(=O)n3Cc2c(F)cccc2Cl)C1 | – | inconclusive: 16.4 µM [inhibitor, partial curve]
COc1ccccc1Cc1c(-c2cccc(Cl)c2)nc2ccc(Br)cn12 | – | active: 23.1 µM
Cc1ccc(CNC(=O)C2CCN(S(=O)(=O)c3ccc(F)cc3)CC2)cc1 | inactive: -20.5% | –
CC(=O)OC1CCC2(C)C(CCC3C2CC(=NO)C2(C)C(C(C)OC(C)=O)CCC32)C1 (configuration not stated) | – | active: 14.6 µM
COc1ccccc1Cn1c(C(C)C)nc2ccccc21 | – | inconclusive: 20.6 µM [inhibitor, single point]
O=C(NCc1cccc(Cl)c1)c1ccc(S(=O)(=O)Nc2cccc(C(F)(F)F)c2)cc1 | – | inconclusive: 29.1 µM [inhibitor, single point]
COc1ccc(S(=O)(=O)N2CCCC(C(=O)NCc3ccccn3)C2)cc1Cl (configuration not stated) | inconclusive: -35.7% [inhibitor] | –
Cc1ccc(C)c(Cn2c(CCCNC(=O)C3CCCCC3)nc3ccccc32)c1 | – | inconclusive: 29.1 µM [inhibitor, single point]
COc1ccc(C(CCN2CCCC2)c2c(O)cc(OC)cc2OC)cc1 (configuration not stated) | – | active: 18.4 µM
COc1ccc(N2CCN(S(=O)(=O)c3ccc(OC)c(C(=O)N4CCCC4)c3)CC2)cc1 | – | inconclusive: 29.1 µM [inhibitor, single point]
COc1cccc(C(=O)c2cn(CC(=O)NCc3ccccc3Cl)c3nc(C)ccc3c2=O)c1 | – | inconclusive: 23.1 µM [inhibitor, single point]
CC1CCCCC1NC(=O)C1CCN(c2c3c(nc4ncnn24)CCC3)CC1 (configuration not stated) | inactive: -28.7% | –
COc1ccc(NC(=O)CN(C)CC(=O)Nc2cccc(F)c2)cc1Cl | – | inconclusive: 23.1 µM [inhibitor, single point]
Cc1[nH]nc(N=CC2=C(O)CC(C)(C)CC2=O)c1-c1ccc(Cl)cc1 | – | active: 11.6 µM
O=C(c1cnn2c(C(F)F)cc(-c3ccccc3)nc12)N1CCCc2ccccc21 | – | inconclusive: 16.4 µM [inhibitor, single point]
Cc1ccc(-c2nc(CS(=O)CC(=O)N3CCN(c4cccc(Cl)c4)CC3)c(C)o2)cc1 (configuration not stated) | – | active: 16.4 µM
NC(=O)[C@@H]1CCCN1Cc1nc(-c2ccc(C(F)(F)F)cc2)no1 | – | inconclusive: 29.1 µM [inhibitor, single point]
Cc1ccc(NC(=O)C(=O)NCC2CCN(C(=O)c3cccc([N+](=O)[O-])c3)CC2)cc1 | – | inconclusive: 5.8 µM [inhibitor, full curve]
Nc1sc(Cc2ccccc2)cc1C(=O)c1c(-c2ccccc2)[nH]c2ccccc12 | – | active: 3.66 µM
O=C(CSc1nc2ccsc2c(=O)n1Cc1ccccc1Cl)NCc1ccc(F)cc1 | – | active: 16.4 µM
Cc1cc(C(=O)N2CCCC(C(=O)c3ccc4ccccc4c3)C2)n(C)n1 (configuration not stated) | – | inconclusive: 29.1 µM [inhibitor, single point]

Structure (SMILES) | activity change, negative = growth inhibition | Potency
C[C@H](Cc1ccccc1)Nc1ncnc2c1ncn2[C@@H]1O[C@H](CO)[C@@H](O)[C@H]1O | – | inactive and inconclusive: 23.1 µM [inhibitor, single point]
O=c1c(Cl)c(Cl)cnn1-c1ccccc1 | – | active: 2.91 µM
O=C(Cn1ncc2c(=O)oc3ccccc3c21)N(Cc1ccco1)C1CCCCC1 | – | inconclusive: 20.6 µM [inhibitor, single point]
Cc1ccc(C(=O)OC(C)C(=O)NC2CCCCC2C)cc1S(=O)(=O)N1CCCCC1 (configuration not stated) | – | active: 18.4 µM
O=C(COC(=O)c1cccs1)c1ccc2c(c1)OCCO2 | inactive: -27.7% | –
Cc1c(Cl)cccc1NC(=O)Cn1cc(C(=O)c2cccs2)c2ccccc21 | – | inconclusive: 29.1 µM [inhibitor, single point]
O=S(=O)(/N=C(/Nc1cccnc1)c1ccccc1)c1ccc(F)cc1F | inactive: -11.3% | –
COc1cc(=O)n2c(c1C(=O)N(C)Cc1nccs1)CCN(Cc1cc(C)cc(C)c1)CC2 | – | inconclusive: 29.1 µM [inhibitor, single point]
COc1ccccc1N1CCN(C(c2ccc(Cl)cc2)c2nnnn2C(C)(C)C)CC1 (configuration not stated) | – | inconclusive: 29.1 µM [inhibitor, single point]
Cc1cccc(NC(=S)NNC(=O)c2ccccc2Br)c1 | – | inconclusive: 23.1 µM [inhibitor, single point]
Cc1ccc(-n2nnnc2SCn2nnc3ccccc3c2=O)cc1 | – | inconclusive: 16.4 µM [inhibitor, partial curve]
COc1ccc(SCCN2CCN(CC(C)C)CCC2=O)cc1 | – | inconclusive: 16.4 µM [inhibitor, partial curve, poor fit]
COc1cccc(-n2nnnc2SCC(=O)Nc2cccc(C)n2)c1 | – | inconclusive: 13 µM [inhibitor, partial curve]
Cc1cc(N(C(=O)c2ccco2)C(C(=O)NC2CCCCC2)c2ccccc2)ccc1-n1cnnn1 (configuration not stated) | – | inconclusive: 2.31 µM [inhibitor, partial curve]
Cc1cccc(-n2cc3c(=O)n(C)c(=O)n(C)c3c2)c1 | inactive: -1.91% | –
CCN(CCCNC(=O)c1c(C)cc(=O)oc1C)c1ccccc1 | – | inconclusive: 18.4 µM [inhibitor, single point]
O=C(Nc1cccc(F)c1)C1CCN(C(=O)Cc2ccccc2)CC1 | – | inconclusive: 29.1 µM [inhibitor, single point]
CN(C)/C=C1\SC(=S)N(c2ccc(Br)cc2)C1=O | – | inconclusive: 16.4 µM [inhibitor, single point]
Nn1c(SCCOc2ccccc2)nnc1-c1cccnc1 | inactive: -2.42% | –
Cc1cc(C)n(-c2nc3ccccc3c(=O)n2OCc2ccc(F)cc2)n1 | – | inconclusive: 29.1 µM [inhibitor, single point]
CCc1ccc(NC(=O)CCCc2nnc3n(CC(C)C)c(=O)c4sccc4n23)cc1 | – | active: 20.6 µM
CC(C)(C)OC(=O)NCCCC[C@H](NC(=O)c1[nH]cnc1C(=O)N[C@@H](Cc1ccccc1)C(=O)OC(C)(C)C)C(=O)OC(C)(C)C | – | active: 20.6 µM
S=C1SCN(Cc2cccnc2)CN1Cc1cccnc1 | – | active: 0.82 µM
Fc1cccc(Cn2cc(C(=S)N3CCOCC3)c3ccccc32)c1 | – | inconclusive: 29.1 µM [inhibitor, single point]
